Among the data in the antibiotic and cytotoxicity screens of Wong et al. (2023) are cytotoxicity call and growth inhibition call values, retold here.

This is one part of the list.

Experiment [1] deals with HSkMC (human skeletal muscle cells). Nature of the experiment: cytotoxicity call (relative viability < 0.9). Particulars: 10 µM.
Experiment [2] relates to HepG2. The experiment can be described thus: cytotoxicity call (relative viability < 0.9). Particulars: 10 µM.
For experiment [3], the system named is S. aureus RN4220. Nature of the experiment: growth inhibition call (relative growth <= 0.2). The conditions noted are these: 50 µM.

Take `CC(=O)NO`: the cytotoxicity call in experiment [1] and in experiment [2] was “inactive” each time. For the same compound, in experiment [3], the growth inhibition call is “inactive”.

Consider `C[C@H](CO)N1C[C@H](C)[C@@H](CN(C)Cc2ccc(Oc3ccccc3)cc2)Oc2ccc(NS(=O)(=O)c3ccc(Cl)cc3)cc2CC1=O`, for which the cytotoxicity call in experiment [1] and in experiment [2] was “inactive” each time. Moreover, the growth inhibition call in experiment [3] is “inactive”.

Regarding `C[C@@H]1CN([C@@H](C)CO)C(=O)Cc2cc(NC(=O)CCN3CCOCC3)ccc2O[C@@H]1CN(C)Cc1ccccc1`, the cytotoxicity call in experiment [1] and in experiment [2] was “inactive” throughout. The growth inhibition call in experiment [3] was “inactive”.

With `Nc1ccc(O)c(C(=O)O)c1`, the cytotoxicity call in experiment [1] and in experiment [2] was “inactive” in each case. Moreover, the growth inhibition call in experiment [3] was “inactive”.

`O=C(O)[C@@H]1[C@@H](CO)[C@@H]2Cn3c(ccc(-c4cncnc4)c3=O)[C@@H]2N1C(=O)C1CCC1`: the cytotoxicity call in experiment [1] and in experiment [2] was “inactive” throughout. Moreover, the growth inhibition call in experiment [3] was “inactive”.

For `O=C(CCCCCCC(=O)N/N=C/[C@H](O)[C@@H](O)[C@H](O[C@@H]1O[C@H](CO)[C@H](O)[C@H](O)[C@H]1O)[C@H](O)CO)NO`, the cytotoxicity call in experiment [1] and in experiment [2] was “inactive” each time. In experiment [3], the growth inhibition call was “inactive”.

In the case of `CCNC(=O)c1csc(N)n1`, the cytotoxicity call in experiment [1] and in experiment [2] was “inactive” throughout. Further, in experiment [3], the growth inhibition call was “inactive”.

`C[C@@H]1CN([C@H](C)CO)S(=O)(=O)c2ccc(-c3ccccc3F)cc2O[C@H]1CN(C)Cc1cncnc1`: the cytotoxicity call in experiment [1] and in experiment [2] was “inactive” throughout. Moreover, in experiment [3], the growth inhibition call is “inactive”.

In the case of `COc1ccc(S(=O)(=O)Nc2ccc3c(c2)C(=O)N([C@H](C)CO)C[C@@H](C)[C@@H](CN(C)S(=O)(=O)c2ccccc2)O3)cc1`, the cytotoxicity call in experiment [1] and in experiment [2] was “inactive” in each case. The growth inhibition call in experiment [3] was “inactive”.

Turning to `CSc1ncccc1C(N)=O`, the cytotoxicity call in experiment [1] and in experiment [2] was “inactive” in each case. Moreover, in experiment [3], the growth inhibition call is “inactive”.

For `C[C@H]1CN([C@@H](C)CO)C(=O)c2cc(C#Cc3ccncc3)cnc2O[C@H]1CN(C)S(=O)(=O)c1ccccc1F`, the cytotoxicity call in experiment [1] is “inactive”. Moreover, the cytotoxicity call in experiment [2] was “active”. Further, the growth inhibition call in experiment [3] is “inactive”.

Consider `Cc1noc(C)c1S(=O)(=O)Nc1ccc2c(c1)C(=O)N([C@H](C)CO)C[C@@H](C)[C@H](CN(C)C(=O)NC(C)C)O2`, for which the cytotoxicity call in experiment [1] and in experiment [2] was “inactive” throughout. Also, the growth inhibition call in experiment [3] is “inactive”.

On to `O=C(N[C@@H](c1ccccc1)c1ccc2ccccc2n1)C1CCN(Cc2ccc(Cl)c(Cl)c2)CC1`, for which the cytotoxicity call in experiment [1] and in experiment [2] was “inactive” each time. Moreover, the growth inhibition call in experiment [3] is “inactive”.

Take `CN(C)C(=O)CN1C[C@@H]2CCN(C(=O)[C@H]3CCCO3)CC[C@H]2S1(=O)=O`: the cytotoxicity call in experiment [1] and in experiment [2] was “inactive” in each case. The growth inhibition call in experiment [3] is “inactive”.

In the case of `CO[C@H]1CN(C)C(=O)c2cc(NS(=O)(=O)CC(F)(F)F)ccc2OC[C@@H](C)N(Cc2ccccn2)C[C@@H]1C`, the cytotoxicity call in experiment [1] and in experiment [2] was “inactive” in each case. Moreover, in experiment [3], the growth inhibition call was “inactive”.

As for `C[C@H]1[C@H](NC(=O)/C(=N\OC(C)(C)C(=O)O)c2csc(N)n2)C(=O)N1S(=O)(=O)O`, the cytotoxicity call in experiment [1] and in experiment [2] was “inactive” throughout. Further, in experiment [3], the growth inhibition call was “inactive”.

Regarding `Cn1cnc(S(=O)(=O)N2C[C@@H](O)COC[C@@H]3O[C@@H](CC(=O)NC4Cc5ccccc5C4)CC[C@H]32)c1`, the cytotoxicity call in experiment [1] and in experiment [2] was “inactive” each time. For the same compound, the growth inhibition call in experiment [3] was “inactive”.
